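Values below derive from 48-hour exposures of cells grown in 96-well plates, with endpoints linearly interpolated between the two concentrations bracketing the appropriate inhibition level. Abbreviation: GI50, concentration required for 50% inhibition of growth.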 The source holds more than one record for some entries. They are shown here; other results are not. There may be further records. For some assays here: Results that share an entry are repeats (runs, samples, wells, individuals or studies). Marks in square brackets tell the records apart. Letters count within one entry.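 TGI: total growth inhibition.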 For some assays here: A record mostly stands for its own series of concentrations, not given here; some values may only mark the edge of a range.
Experiments:
Assay in all cases: inhibition of tumour cell growth, NCI panel, 48 h
IGROV1 ovarian = system: IGROV1 ovarian
OVCAR-3 ovarian = system: OVCAR-3 ovarian
SK-MEL-28 melanoma = system: SK-MEL-28 melanoma
SR leukemia = system: SR leukemia
SK-MEL-2 melanoma = system: SK-MEL-2 melanoma
SW-620 colon = system: SW-620 colon
SK-OV-3 ovarian = system: SK-OV-3 ovarian
CCRF-CEM leukemia = system: CCRF-CEM leukemia
SNB-19 CNS = system: SNB-19 CNS
SN12C renal = system: SN12C renal
NCI-H460 lung = system: NCI-H460 lung
HL-60(TB) leukemia = system: HL-60(TB) leukemia
HCT-15 colon = system: HCT-15 colon
RPMI-8226 leukemia = system: RPMI-8226 leukemia
K-562 leukemia = system: K-562 leukemia
UACC-62 melanoma = system: UACC-62 melanoma
KM12 colon = system: KM12 colon
MOLT-4 leukemia = system: MOLT-4 leukemia
U251 CNS = system: U251 CNS

Structure (SMILES)	GI50 (IGROV1 ovarian)	TGI (OVCAR-3 ovarian)	GI50 (SK-MEL-28 melanoma)	TGI (SR leukemia)	GI50 (SK-MEL-2 melanoma)	TGI (SW-620 colon)	TGI (SK-OV-3 ovarian)	TGI (CCRF-CEM leukemia)	TGI (IGROV1 ovarian)	TGI (SNB-19 CNS)	TGI (SN12C renal)	TGI (NCI-H460 lung)	TGI (HL-60(TB) leukemia)	TGI (HCT-15 colon)	TGI (RPMI-8226 leukemia)	TGI (K-562 leukemia)	TGI (UACC-62 melanoma)	TGI (KM12 colon)	TGI (MOLT-4 leukemia)	TGI (U251 CNS)
CC[C@@H]1C(=O)N(C)c2cnc(Nc3ccc(C(=O)NC4CCN(C)CC4)cc3OC)nc2N1C1CCCC1	5.37 nM [sample A, mean of 2 tests] and 83.2 nM [sample B, mean of 3 tests]	1.78 µM [sample A, mean of 2 tests] and 128 nM [sample B, mean of 3 tests]	1.09 µM [sample A, 1 test] and < 10.6 nM [sample B, mean of 3 tests]	1.71 µM [sample A, mean of 2 tests] and 96.9 nM [sample B, mean of 3 tests]	5.79 nM [sample A, 1 test] and 1.39 µM [sample B, 1 test]															
CCc1ccc(/C=C\c2cc(OC)c(OC)c(OC)c2)cc1						509 nM and > 100 µM	916 nM and > 100 µM	498 nM and 17.7 µM	453 nM and > 100 µM	748 nM and > 100 µM	537 nM and > 100 µM	779 nM and > 100 µM	80.8 nM and 3.88 µM	306 nM and 10.2 µM	534 nM and 13.5 µM	350 nM and > 100 µM	777 nM and 72.5 µM	368 nM and 12 µM	384 nM and 19.6 µM	257 nM and 14.1 µM

From PubChem BioAssay (NCI)
